The supplement of paper PMC4604168 (melanoma cell lines)
The list shows a part of the results. Single values are uncertain, as repeats are few or missing.

Key:
Assay in all cases: cell count relative to DMSO control; melanoma cells; higher = more viable cells
Conditions in all cases: library dose: low library concentration; 72 h
MZ2-MEL = tested on: MZ2-MEL
MeWo = tested on: MeWo
RPMI7951 = tested on: RPMI7951
RVH-421 = tested on: RVH-421
SkMel28 = tested on: SkMel28
SkMel2 = tested on: SkMel2
SkMel30 = tested on: SkMel30
UACC62 = tested on: UACC62
SkMel5 = tested on: SkMel5
UACC257 = tested on: UACC257
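Note: cell number obtained by counting DAPI-stained nuclei in high-throughput microscope images with image analysis software, screen run in 1,536-well plates.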

SMILES	cell count (MZ2-MEL)	cell count (MeWo)	cell count (RPMI7951)	cell count (RVH-421)	cell count (SkMel28)	cell count (SkMel2)	cell count (SkMel30)	cell count (UACC62)	cell count (SkMel5)	cell count (UACC257)
O=C(O)c1ccc2c(c1)nc(Nc1cccc(Cl)c1)c1ccncc12 + C[As](C)SC[C@H](NC(=O)CC[C@H](N)C(=O)O)C(=O)NCC(=O)O [Darinaparsin] (first compound 0.4 µM, partner dose 0.4 µM)	94.1%	86.5%	107%	80.2%	87.8%	96%	79.7%	81.4%		
Cc1cc(Nc2cc(N3CCN(C)CC3)nc(Sc3ccc(NC(=O)C4CC4)cc3)n2)n[nH]1 [Tozasertib] + O=C(Oc1ccc([N+](=O)[O-])cc1)N1CCC(C(O)(c2ccc3c(c2)OCO3)c2ccc3c(c2)OCO3)CC1 [JZL184] (first compound 0.006 µM, partner dose 1 µM)	103%	90.2%	100%	94.9%	90.5%	97.3%	86.8%	84.2%	94.2%	96.7%
Clc1ccc(Nc2nnc(Cc3ccncc3)c3ccccc23)cc1 [vatalanib] + C/C(O)=C(\C#N)C(=O)Nc1cc(Br)ccc1Br [LFM-A13] (first compound 2 µM, partner dose 2 µM)	88.1%	94.7%	86.9%	106%	82.1%	101%	116%	93.1%	90.8%	88.1%
C=CCn1c(=O)c2cnc(Nc3ccc(N4CCN(C)CC4)cc3)nc2n1-c1cccc(C(C)(C)O)n1 + Cc1cc(SCc2sc(-c3ccc(C(F)(F)F)c(F)c3)nc2C)ccc1OCC(=O)O [GW0742] (first compound 0.02 µM, partner dose 2 µM)	97.1%	86.2%	112%	113%	73.9%		84.4%	80.3%	82.2%	79%
C#Cc1cccc(Nc2ncnc3cc(OCCOC)c(OCCOC)cc23)c1 [erlotinib] + C[As](C)SC[C@H](NC(=O)CC[C@H](N)C(=O)O)C(=O)NCC(=O)O [Darinaparsin] (first compound 0.8 µM, partner dose 0.4 µM)	89.6%	78.8%	100%	92.5%	81.4%	97.6%	82.9%	84.6%		
CN1CCN(c2ccc3nc(-c4c(N)c5c(F)cccc5[nH]c4=O)[nH]c3c2)CC1 [Dovitinib] + C[As](C)SC[C@H](NC(=O)CC[C@H](N)C(=O)O)C(=O)NCC(=O)O [Darinaparsin] (first compound 0.1 µM, partner dose 0.4 µM)	89.6%	79.9%	88.5%	80.2%	87.9%	102%	78.1%	80.8%		
O=C1NC(=O)/C(=C/c2ccc(-c3ccc(F)cc3O)o2)S1 + O=C(Oc1ccc([N+](=O)[O-])cc1)N1CCC(C(O)(c2ccc3c(c2)OCO3)c2ccc3c(c2)OCO3)CC1 [JZL184] (first compound 1 µM, partner dose 1 µM)	104%	89.3%	136%	90.7%	86.6%		83.4%	106%	95.5%	90.4%
Cc1cc(Nc2cc(N3CCN(C)CC3)nc(Sc3ccc(NC(=O)C4CC4)cc3)n2)n[nH]1 [Tozasertib] + C[As](C)SC[C@H](NC(=O)CC[C@H](N)C(=O)O)C(=O)NCC(=O)O [Darinaparsin] (first compound 0.006 µM, partner dose 0.4 µM)	95.6%	82.6%	110%	93.9%	88.1%	93.8%	84.9%	82.1%		
Nc1ccn([C@@H]2O[C@H](CO)[C@@H](O)C2(F)F)c(=O)n1 [gemcitabine] + C[As](C)SC[C@H](NC(=O)CC[C@H](N)C(=O)O)C(=O)NCC(=O)O [Darinaparsin] (first compound 0.0004 µM, partner dose 0.4 µM)	90.2%	85.7%	81.6%	95.2%	93.2%	106%	108%	80.8%		
O=C(O)c1ccc2c(c1)nc(Nc1cccc(Cl)c1)c1ccncc12 + Cc1cc(SCc2sc(-c3ccc(C(F)(F)F)c(F)c3)nc2C)ccc1OCC(=O)O [GW0742] (first compound 0.4 µM, partner dose 2 µM)	87.8%	99.7%	105%	96.3%	115%	104%	104%	91.2%	116%	93.3%
CO[C@H]1C[C@@H]2CC[C@@H](C)[C@@](O)(O2)C(=O)C(=O)N2CCCC[C@H]2C(=O)O[C@H]([C@H](C)C[C@@H]2CC[C@@H](OCCO)[C@H](OC)C2)CC(=O)[C@H](C)/C=C(\C)[C@@H](O)[C@@H](OC)C(=O)[C@H](C)C[C@H](C)/C=C/C=C/C=C/1C [everolimus] + Cc1cc(SCc2sc(-c3ccc(C(F)(F)F)c(F)c3)nc2C)ccc1OCC(=O)O [GW0742] (first compound 0.02 µM, partner dose 2 µM)	99.6%	88.8%	91.9%	119%	101%		90.3%	113%	99%	106%
CN1CCN(c2ccc3nc(-c4c(N)c5c(F)cccc5[nH]c4=O)[nH]c3c2)CC1 [Dovitinib] + O=C(Oc1ccc([N+](=O)[O-])cc1)N1CCC(C(O)(c2ccc3c(c2)OCO3)c2ccc3c(c2)OCO3)CC1 [JZL184] (first compound 0.1 µM, partner dose 1 µM)	88.2%	90.3%	92.5%	100%	85.8%	101%	66.6%	73%	75.8%	89.2%
